Laboratory results: publication PMC7272049 (PLoS ONE, 2020)

Target: T1, mB7-1 mIgG2a (mouse, UniProt Q00609 38-246)
T1 construct: mouse B7-1 (CD80); also called mB7-1 Ig-fusion; B7-1 Fc; source: small-scale purified recombinant protein
T1 sequence (looked up): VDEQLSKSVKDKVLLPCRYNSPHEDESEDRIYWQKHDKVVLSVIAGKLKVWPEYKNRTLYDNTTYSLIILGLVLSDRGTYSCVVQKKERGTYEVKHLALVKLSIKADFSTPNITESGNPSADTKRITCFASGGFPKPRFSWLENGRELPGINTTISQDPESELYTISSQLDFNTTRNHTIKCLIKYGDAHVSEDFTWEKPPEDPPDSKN
Assay: bead-based flow cytometry competition; protein A beads saturated with mB7-1 mIgG2a; 20 nM mPD-L1 hIgG1 or mCD28 hIgG1 with increasing mIgG2a-fused competitor; anti-human Alexa 488
Settings: both partners purified

B1: mCTLA-4 mIgG2a (Fc fusion)
chain: not shown
notes: mouse CTLA-4; also called recombinant mCTLA-4 mIgG2a
Does B1 bind?
Result: binds
